Assay results: patent US20220242962A1 (APTEVO RESEARCH AND DEVELOPMENT, published 2022)

T1: Cyno 4-1BB ECD-AFH (cynomolgus monkey)
T1 construct: entry includes the tags; also called FOB004; Cyno CD137 ECD-avi-flag-his
T1 chain: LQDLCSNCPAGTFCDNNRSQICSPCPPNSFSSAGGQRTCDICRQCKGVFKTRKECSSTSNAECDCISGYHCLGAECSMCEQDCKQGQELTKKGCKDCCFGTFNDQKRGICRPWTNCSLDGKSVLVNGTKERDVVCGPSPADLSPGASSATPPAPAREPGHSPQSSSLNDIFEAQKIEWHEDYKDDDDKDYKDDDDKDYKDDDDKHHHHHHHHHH

T2: Full-length Cyno 4-1BB (cynomolgus monkey, UniProt Q07011 24-255 (human entry))
T2 construct: on Jurkat or CHO cells; also called FOB006; cynomolgus 4-1BB
T2 chain: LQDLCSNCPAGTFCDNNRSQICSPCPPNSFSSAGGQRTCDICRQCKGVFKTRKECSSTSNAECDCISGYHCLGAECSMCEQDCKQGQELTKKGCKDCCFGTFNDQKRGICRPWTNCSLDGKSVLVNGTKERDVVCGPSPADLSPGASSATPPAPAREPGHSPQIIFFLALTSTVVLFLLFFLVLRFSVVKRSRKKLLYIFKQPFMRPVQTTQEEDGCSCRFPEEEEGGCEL

T3: Full-length Human OX40 (human, UniProt P43489 29-277)
T3 sequence: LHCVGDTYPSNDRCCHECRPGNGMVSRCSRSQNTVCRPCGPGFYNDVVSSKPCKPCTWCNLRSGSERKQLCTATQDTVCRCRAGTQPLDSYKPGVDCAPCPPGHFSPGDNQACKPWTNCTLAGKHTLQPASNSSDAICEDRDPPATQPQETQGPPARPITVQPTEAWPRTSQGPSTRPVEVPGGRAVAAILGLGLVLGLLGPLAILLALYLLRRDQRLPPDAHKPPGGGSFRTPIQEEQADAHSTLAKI

T4: Human OX40 ECD-AFH (human)
T4 construct: ECD'; entry includes the C-terminal tags; also called OXF003; Human OX40 ECD-avi-flag-his
T4 chain: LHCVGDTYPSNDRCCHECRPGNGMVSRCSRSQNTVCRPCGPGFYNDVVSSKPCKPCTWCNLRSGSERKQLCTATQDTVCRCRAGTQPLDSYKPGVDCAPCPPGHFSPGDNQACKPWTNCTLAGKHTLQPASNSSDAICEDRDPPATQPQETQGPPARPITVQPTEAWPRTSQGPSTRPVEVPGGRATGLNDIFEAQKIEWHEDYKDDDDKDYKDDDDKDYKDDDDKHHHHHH

T5: Full-length Cyno OX40 (cynomolgus monkey, UniProt P43489 29-277 (human entry))
T5 construct: on CHO-K1SV cells; also called OXF004; cynomolgus OX40
T5 chain: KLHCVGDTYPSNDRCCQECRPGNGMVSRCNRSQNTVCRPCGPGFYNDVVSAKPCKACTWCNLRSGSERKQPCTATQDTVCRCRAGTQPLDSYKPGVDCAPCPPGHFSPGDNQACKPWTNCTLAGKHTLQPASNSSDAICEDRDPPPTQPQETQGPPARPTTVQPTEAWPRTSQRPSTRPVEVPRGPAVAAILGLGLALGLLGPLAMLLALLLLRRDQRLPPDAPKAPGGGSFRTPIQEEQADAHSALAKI


Experiments:
Full-length Human 4-1BB [1] = molecular target: T6, Full-length Human 4-1BB (human, UniProt Q07011 24-255); experiment: cell-based or functional assay
Human 4-1BB ECD-AFH = molecular target: T7, Human 4-1BB ECD-AFH (human); experiment: SPR, construct captured, monomeric ECD as analyte
T7 construct: entry includes the tags; also called FOB003; HUMAN CD137 ECD-AVI-FLAG-HIS
Experimental: (§1) Mouse anti-human IgG (GE, BR-1008-39) at 25 μg/ml in 10 mM sodium acetate pH 5.0 was immobilized at a density of ˜10,000 response units (RU) onto each flow cell of a CM5 research-grade sensor chip (GE) by standard amine coupling chemistry. Each binding protein at approximately 100 nM in HBS-EP+ with 0.2% BSA buffer was captured in a flow cell with the immobilized anti-human IgG at a flow rate of 10 μL/min for 20 seconds, leaving one flow cell surface unmodified as the reference. Using a single-cycle kinetics mode, five different concentrations of ECD were sequentially injected through each flow cell at 30 μL/min for 300 seconds followed by a 600 second dissociation period. Regeneration was achieved by injection of 3 M MgCl₂ at a flow rate of 30 μL/min for 30 seconds followed by HBS-EP+ with 0.2% BSA buffer stabilization for 1 min.
(§2) Sensorgrams obtained from kinetic SPR measurements were analyzed by the double subtraction method. The signal from the reference flow cell was subtracted from the analyte binding response obtained from flow cells with immobilized or captured ligands. Buffer reference responses were then averaged from multiple injections. The averaged buffer reference responses were then subtracted from analyte binding responses, and the final double-referenced data were analyzed with Biacore T200 Evaluation software (2.0, GE), globally fitting data to derive kinetic parameters. All sensorgrams were fitted using a simple one-to-one binding model.

Cyno 4-1BB ECD-AFH = molecular target: T1, Cyno 4-1BB ECD-AFH; experiment: SPR, construct captured, monomeric ECD as analyte
Experimental: as §1, §2

Full-length Human 4-1BB [2] = molecular target: T6, Full-length Human 4-1BB; experiment: flow cytometry, cells expressing human 4-1BB (Jurkat in text, CHO in table head)
Full-length Cyno 4-1BB = molecular target: T2, Full-length Cyno 4-1BB; experiment: flow cytometry, cells expressing cynomolgus 4-1BB (Jurkat in text, CHO in table head)
Full-length Human OX40 [3] = molecular target: T3, Full-length Human OX40; experiment: cell-based or functional assay
Full-length Human OX40 [4] = molecular target: T3, Full-length Human OX40; experiment: flow cytometry, CHO cells expressing human OX40
Experimental: (§3) Mean fluorescence intensity (MFI) of bound molecules on cells was determined after exclusion of doublets.

Human OX40 ECD-AFH = molecular target: T4, Human OX40 ECD-AFH; experiment: SPR, construct captured, monomeric ECD as analyte
Experimental: as §1, §2

Full-length Cyno OX40 = molecular target: T5, Full-length Cyno OX40; experiment: flow cytometry, CHO cells expressing cynomolgus OX40
Experimental: as §3

Reporter Assay CD64/CHO EC50 (Full-length Human 4-1BB [1]) [nM]	Kd (Human 4-1BB ECD-AFH) [nM]	koff (Human 4-1BB ECD-AFH) [s⁻¹]	kon (Human 4-1BB ECD-AFH) [M⁻¹ s⁻¹]	Kd (Cyno 4-1BB ECD-AFH) [nM]	koff (Cyno 4-1BB ECD-AFH) [s⁻¹]	kon (Cyno 4-1BB ECD-AFH) [M⁻¹ s⁻¹]	EC50 (Full-length Human 4-1BB [2]) [nM]	EC50 (Full-length Cyno 4-1BB) [nM]	OX40 Reporter Assay EC50 (Full-length Human OX40 [3]) [nM]	OX40 Reporter Assay Max induction (Full-length Human OX40 [3])	EC50 (Full-length Human OX40 [4]) [nM]	max MFI (Full-length Human OX40 [4]) [MFI]	Kd (Human OX40 ECD-AFH) [nM]	koff (Human OX40 ECD-AFH) [s⁻¹]	kon (Human OX40 ECD-AFH) [M⁻¹ s⁻¹]	EC50 (Full-length Cyno OX40) [nM]	max MFI (Full-length Cyno OX40) [MFI]	Binder
0.028	25	0.0021	82000	61	0.0032	53000	1.4	2.2	–	–	–	–	–	–	–	–	–	FOB01188 (Fc fusion, wild-type IgG1 Fc with anti-4-1BB scFv (VH-VL) at its C-terminus; also called FOBW0061HLH26; FOB01188 (Partially Humanized)) [sequence of human IgG1 Fc with changes and a few adjoining residues omitted]GGGGSGGGGSGGGGSPSEVQLVQSGAEVKKPGASVKVSCKASGYTFTSYWMNWVRQAPGQGLEWMGNIYPGSSTTNYAQKFQGRVTMTVDTSTSTVYMELSSLRSEDTAVYYCASFSDGYYAYAMDYWGQGTLVTVSSGGGGSGGGGSGGGGSGGGGSEIVMTQSPATLSLSPGERATLSCRASQDISNYLNWYQQKPGQAVRLLIYYTSRLHSGIPARFSGSGSGTDYTLTISSLQPEDFAVYFCQQGYTLPYTFGQGTKVEIKR
0.028	38	0.0026	68000	89	0.0039	44000	1.2	2.4	–	–	–	–	–	–	–	–	–	FOB01143 (Fc fusion, wild-type IgG1 Fc with anti-4-1BB scFv (VH-VL) at its C-terminus; also called FOBW006HLH20; FOB01143 (Mouse)) [sequence of human IgG1 Fc with changes and a few adjoining residues omitted]GGGGSGGGGSGGGGSPSEVQLVQSGAEVKKPGSSVKVSCKASGYTFTSYWINWVRQAPGQGLEWIGNIYPGSSTTNYNEKFKSRATLTVDTSTSTAYMELSSLRSEDTAVYYCASFSDGYYAYAMDYWGQGTLVTVSSGGGGSGGGGSGGGGSGGGGSEIVMTQSPGTLSLSPGERATLSCRASQDISNYLNWYQQKPGQAVRLLIYYTSRLHSGIPDRFSGSGSGTDYTLTISRLEPEDFAVYFCQQGYTLPYTFGQGTKVEIKR
–	–	–	–	–	–	–	–	–	0.182	1.43e+06	4	14600	0.3	0.00014	530000	4	13300	OXF01099 (Fc fusion, wtFc-anti-OX40 scFv; germlining mutations with H40N) [sequence of human IgG1 Fc with changes and a few adjoining residues omitted]GGSPSSYVLTQPPSVSVAPGQTARITCGGNNIGSKSVNWFQQKPGQAPVLVVYDDSGRPSGIPERFSGSTSGNTATLTISRVEAGDEADYYCQVWDSSSDHVVFGGGTKLTVLGGGGSGGGGSGGGGSGGGGSQVQLVESGGGVVQPGRSLRLSCAASGFTLSYYGMHWVRQAPGKGLEWVAVISHDGSDKYYADSVKGRFTISRDNSKNTLYLQMNSLRAEDTAVYYCSNDQFDPWGQGTLVTVSSR
–	–	–	–	–	–	–	–	–	0.089	1.52e+06	2.2	13800	0.6	0.00021	340000	1.8	15300	OXF01122 (Fc fusion, monospecific wild-type IgG1 Fc with anti-OX40 scFv at its C-terminus (wtFc-anti-OX40 scFv); also called OXF01122 (Parent); OXF01022) [sequence of human IgG1 Fc with changes and a few adjoining residues omitted]GGSPSSYVLTQPPSVSVAPGQTARITCGGNNIGSKSVHWFQQKPGQAPALVVYDDSGRPSGIPERFSGSTSGNTATLTISRVEAGDEADYYCQVWDSSSDHVVFGGGTKLTVLGGGGSGGGGSGGGGSGGGGSQVQLVESGGGVVQPGRSLRLSCAASGFTLSYYGMHWVRQAPGKGLEWVAVISHDGSDKYYADSVKGRFTISRDNSKNTLYLQMDSLRAEDTALYYCSNDQFDPWGQGTLVTVSSR
–	–	–	–	–	–	–	–	–	0.088	1.31e+06	2.1	14800	0.7	0.00026	390000	1.8	17000	OXF01115 (Fc fusion, wtFc-anti-OX40 scFv; germlining mutations with H40N and V55A) [sequence of human IgG1 Fc with changes and a few adjoining residues omitted]GGSPSSYVLTQPPSVSVAPGQTARITCGGNNIGSKSVNWFQQKPGQAPVLVVYDDSGRPSGIPERFSGSTSGNTATLTISRVEAGDEADYYCQVWDSSSDHVVFGGGTKLTVLGGGGSGGGGSGGGGSGGGGSQVQLVESGGGVVQPGRSLRLSCAASGFTLSYYGMHWVRQAPGKGLEWVAAISHDGSDKYYADSVKGRFTISRDNSKNTLYLQMNSLRAEDTAVYYCSNDQFDPWGQGTLVTVSSR
